Measured values taken from PubChem BioAssay AID995 (National Center for Advancing Translational Sciences (NCATS), 2007).
Values joined by “and” are separate entries in the source; they are usually repeats but may differ in a detail not shown here. Equal values may be shown once. Hit rate of the full screen: of about 72,000 compounds, about 710 (0.99%) were called active. Inconclusive means that the source gave no clear call. Such entries were picked first, then a sample of the others. The call rests on the fitted dose curve; in most records, active means well fitted inhibition curve with a large enough effect; inconclusive means small, poorly fitted or top-dose-only effect; inactive means no such curve, though single readings can be large or run the other way. Potencies of inconclusive entries are doubtful fits and often do not repeat.

Experiment: qHTS Assay for Inhibitors of the ERK Signaling Pathway using a Homogeneous Screening Assay; further: nearly all actives have a fitted effect of over 55% in size
Conditions: HEK293-V1b, vasopressin-stimulated pERK AlphaScreen; activity, negative = inhibition: at 57.5 µM (top of the series) unless noted
Procedure, shortened: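 HEK293 cells stably expressing V1b receptor, preincubated 30 min at 37 °C with compound, then stimulated 5 min with 25 nM vasopressin. Phospho-ERK by AlphaScreen SureFire after 5 h RT; normalized to DMSO and vasopressin; AC50 by Hill fit.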
On the % scale 0 is the no-effect control and ±100 the full control effect; potency means the concentration at half of the fitted maximal effect; tags describe the fitted curve by direction and shape.

Structure (SMILES)	activity, negative = inhibition	Potency
C#CCCCO/N=C1/[C@H]2O[C@@H]2[C@@H](O)[C@H]2[C@H]1CCn1c(=O)n([C@@H](CC)c3ccccc3)c(=O)n12	inactive: 19.3% [at 11.5 µM]	
COCc1nnc(NC(=O)c2ccc(NC(=O)C(C)C)cc2)s1		inconclusive: 20 µM [inhibitor, single point]
C/C=C/CSc1nc2c(c(=O)[nH]c(=O)n2C)n1CCC		inconclusive: 2.51 µM [inhibitor, full curve, poor fit]
O=C(O)c1cc(N=Nc2ccc([N+](=O)[O-])cc2)ccc1O		inactive
COc1cccc(Nc2ncc3nc(C)c(=O)n(CCc4ccccc4)c3n2)c1	inactive: 0.281%	
Cn1cc(CC(=O)N2CCN(c3ccc(Cl)cc3)CC2)c2ccccc21		inconclusive: 2.51 µM [inhibitor, single point]
Cn1c(=O)cnc2cnc(Nc3ccccc3)nc21		inconclusive: 20 µM [inhibitor, single point]
CC1(C)CC(=O)C2=C(C1)OC1=C(C(=O)CC(C)(C)C1)C2c1ccc(O)cc1O		active: 10 µM
CN(C)c1nc(-c2cccc(C#N)c2)nc2ccccc12	inactive: -0.702%	
Fc1cccc2sc(Nc3nnc(-c4ccco4)o3)nc12	inactive: 25.4%	
CC(C)NC(=O)N1CC2(CCN(C(=O)c3ccncc3)CC2)C1	inactive: -8.96%	
COC(=O)N1CCC[C@@]2(CCN(Cc3nccs3)C2)C1	inactive: 17.7%	
O=C(Nc1nnc(CCN2CCOCC2)s1)C1CCCCC1		inconclusive: 31.6 µM [inhibitor, partial curve]
CC(=O)OCC(=O)[C@@]12OC3(CCCC3)OC1CC1C3CCC4=CC(=O)C=C[C@@]4(C)[C@]3(F)C(O)C[C@]12C (stereo partly drawn)	inactive: 11.4%	
CC(C)(C)c1csc(NC(=O)c2cccs2)n1		inconclusive: 20 µM [inhibitor, partial curve]
CN(C)C(=O)c1ccc(-c2ccc3ncnc(NCc4cccnc4)c3c2)cc1		inconclusive: 12.6 µM [inhibitor, partial curve]
Cc1cc(OCC(=O)Nc2ccc(S(=O)(=O)N3CCN(C)CC3)cc2)cc(C)c1Cl		inconclusive: 31.6 µM [inhibitor, single point]
O=C(Nc1nc2ccccc2s1)C1CCCO1 (stereo not drawn)		inconclusive: 25.1 µM [inhibitor, partial curve]
CC1=C(CC(=O)O)c2cc(F)ccc2/C1=C\c1ccc(S(C)(=O)=O)cc1		inconclusive: 39.8 µM [inhibitor, single point]
COc1ccc(-c2n[nH]c(C)c2-c2cnn(-c3ccccc3)c2)c(O)c1		inconclusive: 25.1 µM [inhibitor, partial curve]
O=C1c2ccccc2C(=O)C1c1ccc2ccccc2n1		inconclusive: 2.51 µM [inhibitor, partial curve]
Cc1ccc(OCc2nnc(SCc3nc4ccccc4[nH]3)n2Cc2ccco2)cc1		active: 31.6 µM
OC(C#CCN1CCCC1)c1ccccc1 (stereo not drawn)		inconclusive: 15.8 µM [inhibitor, single point]

Structure (SMILES)	activity, negative = inhibition	Potency
COC(=O)CSc1nnc(-c2ccc(NS(=O)(=O)c3ccccc3)cc2)o1		inconclusive: 39.8 µM [inhibitor, single point]
CCOC(=O)N1CCC(N2C(=O)c3ccccc3C2Nc2ccc3c(c2)OCCO3)CC1 (stereo not drawn)		inconclusive: 25.1 µM [inhibitor, single point]
COc1ccc(NC(=O)N2CC3(CCN(C(=O)c4ccco4)CC3)C2)cc1	inactive: 2.37%	
O=c1cnc2cnc(Oc3cccc(Cl)c3)nc2n1CCc1ccccc1	inactive: -22.5%	
CC(C)c1cc(Nc2cccc(O)c2)cc(C(C)C)c1O		active: 31.6 µM
O=C(Cc1ccc(S(=O)(=O)N2CCOCC2)s1)Nc1ccc2c(c1)CCC2	inactive: 36.2%	
NC(=NCCCCCCN=C(N)/N=C(\N)Nc1ccc(Cl)cc1)/N=C(\N)Nc1ccc(Cl)cc1		inactive and inconclusive: 25.1 µM [inhibitor, partial curve, poor fit] and inconclusive: 31.6 µM [inhibitor, single point]
FC(F)Sc1ccc(Nc2ncnc3nc[nH]c23)cc1		inconclusive: 39.8 µM [inhibitor, single point]
CCOC(=O)c1cccc(NC(=O)c2cccs2)c1		inconclusive: 39.8 µM [inhibitor, single point]
COc1ccc(N2CCN(C(=O)C(OC(C)=O)c3ccccc3)CC2)cc1 (stereo not drawn)		inconclusive: 0.794 µM [inhibitor, full curve, poor fit]
COc1ccc2c(c1)c(C(=O)CNc1nc(C)cs1)c(C)n2C		inconclusive: 39.8 µM [inhibitor, single point]
COc1c(-c2ccccc2)oc2c(ccc3occc32)c1=O		inconclusive: 39.8 µM [inhibitor, partial curve, poor fit]
COc1ccc(-n2c(Cc3cccn3C)nnc2SCC(=O)NC2CCCCC2)cc1		inconclusive: 12.6 µM [inhibitor, partial curve]
CC(=O)c1ccc(OC2C(O)COC2/C=C/c2ccc(Cl)cc2)cc1 (stereo not drawn)	inactive: 19.3% [at 11.5 µM] and inactive: 6.61% [at 11.5 µM]	
CC1(C)OC(C(O)(c2cc(C(F)(F)F)cc(C(F)(F)F)c2)c2cc(C(F)(F)F)cc(C(F)(F)F)c2)C(C(O)(c2cc(C(F)(F)F)cc(C(F)(F)F)c2)c2cc(C(F)(F)F)cc(C(F)(F)F)c2)O1 (stereo not drawn)	inactive: 0.258% [at 11.5 µM]	
COc1cc(OC)c(-c2nn3c(-c4ccncc4)nnc3s2)cc1OC		inconclusive: 20 µM [inhibitor, partial curve, poor fit]
COc1ccc(C(=O)Nc2nc(-c3cccs3)cs2)cc1		inconclusive: 25.1 µM [inhibitor, single point]
Cn1c(N)c(C(=O)COC(=O)CCCc2c[nH]c3ccccc23)c(=O)n(C)c1=O		inconclusive: 25.1 µM [inhibitor, single point]
Cc1c(Cl)cccc1NC(=O)Cn1cccc1		inconclusive: 31.6 µM [inhibitor, partial curve]
c1coc(CNc2ncnc3sc4c(c23)CCCCC4)c1	inactive: -13.6%	
Cc1oc(-c2ccccc2F)nc1CS(=O)(=O)CC(=O)N1CCN(Cc2ccccc2)CC1		inconclusive: 31.6 µM [inhibitor, single point]
CCOc1ccc(C)cc1S(=O)(=O)n1ccc(C)n1		inconclusive: 0.158 µM [inhibitor, full curve, poor fit]
CC(=O)n1nc(-c2ccco2)nc1SCc1ccccc1		inconclusive: 20 µM [inhibitor, partial curve]

Structure (SMILES)	activity, negative = inhibition	Potency
O=c1c(-c2ccc(Cl)cc2)nc2cnc(N3CCNCC3)nc2n1CCc1ccccc1	inactive: -0.355%	
COCCNC(=O)c1c[nH]c2cc(OC)c(OC)cc2c1=O		inconclusive: 25.1 µM [inhibitor, single point]
CC/C=C1/OC(=O)c2ccccc21		inconclusive: 2 µM [inhibitor, full curve, poor fit]
CCOc1ccc(Cc2nnc(N)s2)cc1OCC		inconclusive: 5.01 µM [inhibitor, partial curve]
COc1cccc(-c2ccc3ncnc(N4CCOCC4)c3c2)c1		inconclusive: 15.8 µM [inhibitor, partial curve]
N#CC1=C(SCC(=O)c2cc3ccccc3oc2=O)NC(=O)C(C#N)C12CCCC2 (stereo not drawn)		active: 25.1 µM
CC(C)CN1CCC2(CC1)CCN(C(=O)c1csnn1)CC2	inactive: 8.45%	
CCOC(=O)c1cccc(NC(=O)Cn2c(CC(=O)NC)nc3ccccc32)c1		inconclusive: 39.8 µM [inhibitor, single point]
CC(=O)c1c(C)[nH]c(C(=O)OCCCCN2C(=O)c3ccccc3C2=O)c1C		active: 12.6 µM
CCOC(=O)C1CCN(S(=O)(=O)c2cc(Br)cc3c2N(C(=O)C2CC2)CC3)CC1		inconclusive: 5.01 µM [inhibitor, partial curve]
O=C(CN1CCOCC1)N1CCN(S(=O)(=O)c2ccccc2)C1c1ccccc1 (stereo not drawn)	inactive: -16.1%	
COC(=O)CSc1nc2ccccc2nc1SCC(=O)OC		inconclusive: 12.6 µM [inhibitor, partial curve]
Cc1cc(C)c(-c2cc(C(F)(F)F)no2)c(=O)[nH]1	inactive: 1.47%	
Clc1ccc(Cn2ncc3c(N4CCCC4)ncnc32)cc1	inactive: -12.8%	
Clc1ccccc1-c1cncnc1NCc1cccs1		inconclusive: 0.158 µM [inhibitor, partial curve]
Cc1noc(C)c1C(=O)N1CCC2(CCN(Cc3ccc(C#N)cc3)CC2)CC1		inconclusive: 25.1 µM [inhibitor, single point]
c1nc(N2CCC3(CC2)OCCO3)c2c3c(sc2n1)CCCC3		active: 31.6 µM
COc1ccc(NC(=O)c2oc3ccc(S(=O)(=O)N4CCC5(CC4)OCCO5)cc3c2C)cc1		inconclusive: 10 µM [inhibitor, partial curve]
CC(CCO)Nc1nc2c(c(=O)n(C)c(=O)n2C)n1Cc1cccc(Br)c1 (stereo not drawn)		inconclusive: 31.6 µM [inhibitor, single point]
CC1(C)S[C@@H]2[C@H](C(=O)O)N=C(Cc3ccccc3)N2[C@H]1C(=O)O	inactive: -4.08% [at 11.5 µM]	
COc1nc(NCc2ccco2)nc(N2CCC(C)CC2)n1		inconclusive: 39.8 µM [inhibitor, single point]
Cc1cc(C)cc(NS(=O)(=O)c2ccc3[nH]c(=O)[nH]c3c2)c1		inconclusive: 25.1 µM [inhibitor, partial curve]
